From publication PMC12301659
No constants are given. Whether binding was seen depends on the method and setting. In cells and extracts the contact can be indirect. Some entries that bind do so weakly or less than the wild type. For some of these results: Sequences can lack the tags named with a protein.

The chains behind the UniProt entries cited, without tags or fusion partners. Where a name states a change or a piece, a line headed by the entry shows the natural chain unless it says otherwise.
UniProt P62258: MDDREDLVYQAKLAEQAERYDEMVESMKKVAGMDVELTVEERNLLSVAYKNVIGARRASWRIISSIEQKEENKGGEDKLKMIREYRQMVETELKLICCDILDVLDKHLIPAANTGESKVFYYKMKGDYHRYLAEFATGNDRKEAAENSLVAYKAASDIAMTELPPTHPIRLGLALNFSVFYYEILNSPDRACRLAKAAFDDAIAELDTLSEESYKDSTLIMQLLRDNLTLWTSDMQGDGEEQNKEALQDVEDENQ

B1: Myc-tagged separase auto-catalytic domain (AC) (domain or fragment, UniProt Q14674 1141-1650)
chain: SHSPTCDCSLCASPVLTAVCLRWVLVTAGVRLAMGHQAQGLDLLQVVLKGCPEAAERLTQALQASLNHKTPPSLVPSLLDEILAQAYTLLALEGLNQPSNESLQKVLQSGLKFVAARIPHLEPWRASLLLIWALTKLGGLSCCTTQLFASSWGWQPPLIKSVPGSEPSKTQGQKRSGRGRQKLASAPLRLNNTSQKGLEGRGLPCTPKPPDRIRQAGPHVPFTVFEEVCPTESKPEVPQAPRVQQRVQTRLKVNFSDDSDLEDPVSAEAWLAEEPKRRGTASRGRGRARKGLSLKTDAVVAPGSAPGNPGLNGRSRRAKKVASRHCEERRPQRASDQARPGPEIMRTIPEEELTDNWRKMSFEILRGSDGEDSASGGKTPAPGPEAASGEWELLRLDSSKKKLPSPCPDKESDKDLGPRLRLPSAPVATGLSTLDSICDSLSVAFRGISHCPPSGLYAHLCRFLALCLGHRDPYATAFLVTESVSITCRHQLLTHLHRQLSKAQKHRGSL
B2: Cdc25C, endogenous (enzyme, UniProt P30307 1-473)
chain: MSTELFSSTREEGSSGSGPSFRSNQRKMLNLLLERDTSFTVCPDVPRTPVGKFLGDSANLSILSGGTPKRCLDLSNLSSGEITATQLTTSADLDETGHLDSSGLQEVHLAGMNHDQHLMKCSPAQLLCSTPNGLDRGHRKRDAMCSSSANKENDNGNLVDSEMKYLGSPITTVPKLDKNPNLGEDQAEEISDELMEFSLKDQEAKVSRSGLYRSPSMPENLNRPRLKQVEKFKDNTIPDKVKKKYFSGQGKLRKGLCLKKTVSLCDITITQMLEEDSNQGHLIGDFSKVCALPTVSGKHQDLKYVNPETVAALLSGKFQGLIEKFYVIDCRYPYEYLGGHIQGALNLYSQEELFNFFLKKPIVPLDTQKRIIIVFHCEFSSERGPRMCRCLREEDRSLNQYPALYYPELYILKGGYRDFFPEYMELCEPQSYCPMHHQDHKTELLRCRSQSKVQEGERQLREQIALLVKDMSP

Tests used:
[1] = biological target: 14-3-3ε (endogenous) (human (endogenous in HCT116)) (UniProt P62258); test: proximity ligation; Duolink PLA in fixed HCT116 cells transfected with Myc-tagged separase constructs; antibodies to Myc and (endogenous) 14-3-3ε; puncta per cell
GST–14-3-3ε = GST–14-3-3ε (UniProt P62258); test: pull-down; GST or GST fusion proteins bound to glutathione beads incubated with HCT116 lysates (untransfected or transfected with Myc-tagged constructs) in EBC lysis buffer, 4–5 h at RT or 16 h at 4°C; washed three times with NET-N; western blot; only the target purified
GST–14-3-3ε D127A = GST–14-3-3ε D127A (UniProt P62258); test: as above
GST–14-3-3ε E134A = GST–14-3-3ε E134A (UniProt P62258); test: as above

Binder	binding [1]	binding (GST–14-3-3ε)	binding (GST–14-3-3ε D127A)	binding (GST–14-3-3ε E134A)
B1	binds	–	–	–
B2	–	binds	binds	binds
